Assay results: PubChem BioAssay AID761 (NMMLSC, 2007)
About 400 (0.21%) of roughly 190,000 compounds were called active. The inconclusive results got no clear call from the source; some entries with a clear call stand among them for comparison.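 How the source made its calls: active means percent activity GTP binding at least 20 points away from the 100% baseline, either down as inhibitor or up as activator; inconclusive means compound flagged as likely green fluorescent from well-wide comparison; inactive means the rest.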

The compounds below were run against Cell division control protein 42 homolog (Homo sapiens) (UniProt P60953) (assay: wildtype Cdc42 fluorescent GTP binding changes, either direction – biochemical, multiplex bead flow cytometry, Bodipy-GTP, primary screen (AID 761;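 further: median bead fluorescence of bound Bodipy-FL-GTP at 100 nM; 0% = excess unlabeled GTP control and 100% = no compound control; below 100% means less GTP binding so inhibitor and above means activator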)). Conditions: GST-Cdc42 beads, at 10 µM, actives lie on both sides.
Sequence of UniProt P60953 (P60953 whole entry, looked up): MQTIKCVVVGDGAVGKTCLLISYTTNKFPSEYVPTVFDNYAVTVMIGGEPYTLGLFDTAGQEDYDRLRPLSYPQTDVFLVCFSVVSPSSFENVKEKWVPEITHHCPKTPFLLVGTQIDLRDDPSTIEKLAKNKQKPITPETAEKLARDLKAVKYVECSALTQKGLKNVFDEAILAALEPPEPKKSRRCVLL
In the case of `CCOc1ccccc1OCCn1nnc2ccccc21`, the percent activity (GTP binding) is reported as inconclusive: 96%.
With `CCCCN1C(=O)C(NC(=O)C2CC2)(C(F)(F)F)C2=C1CC(C)(C)CC2=O` (stereo not given) the percent activity (GTP binding) was inactive: 102%.
For `Cc1ccc(C(=O)Nc2ncc(Cc3ccc(SC(F)F)cc3)s2)cc1`, the percent activity (GTP binding) was inactive: 99%.
With `O=C(O)CCc1ccc(-c2cccs2)o1` the percent activity (GTP binding) was inconclusive: 90%.
`Fc1cccc(NC(=S)NNc2c3ccccc3nc3ccccc23)c1` was tested, and the percent activity (GTP binding) was inconclusive: 83%.
In the case of `COC(=O)CN(C#N)c1nc(NC(C)C)nc(NC(C)C)n1`, the percent activity (GTP binding) is reported as inactive: 102%.
With `COc1ccccc1C(=O)CSc1cccc[n+]1[O-]` the percent activity (GTP binding) was inactive: 94%.
For `COc1cccc(C(=O)COc2cccc(NC(=O)c3ccco3)c2)c1`, the percent activity (GTP binding) was inconclusive: 91%.
For `COCCOC(=O)C1=C(C)Nc2nc(C)nn2C1c1ccccc1` (stereo not given), the percent activity (GTP binding) was inconclusive: 103%.
`Fc1ccccc1NC(=S)N/N=C/c1ccccc1Br` was tested, and the percent activity (GTP binding) was inactive: 102%.
For `CCOC(=O)N1CCN(S(=O)(=O)c2cc([N+](=O)[O-])ccc2C)CC1`, the percent activity (GTP binding) was inconclusive: 97%.
`c1ccc2c(c1)[nH]c1c(N3CCOCC3)ncnc12` was tested, and the percent activity (GTP binding) was inconclusive: 96%.
For `CC(=O)c1cc(OC(=O)N2CCOCC2)ccc1OC(=O)N1CCOCC1`, the percent activity (GTP binding) was inconclusive: 93%.
`O=c1[nH]cc(S(=O)(=O)c2ccccc2)[nH]1` was tested, and the percent activity (GTP binding) was inconclusive: 95%.
`O=C(Cc1csc(N2CCOCC2)n1)N/N=C/c1cccc(O)c1` was tested, and the percent activity (GTP binding) was inconclusive: 106%.
`O=C1C2C(c3ccccc3)(C(=O)N1c1ccc(Cl)cc1)C2(c1ccccc1)c1ccccc1` (stereo not given) was tested, and the percent activity (GTP binding) was inactive: 102%.
`Cc1ccc(C)c(NC(=S)NNC(=O)c2cc3c(s2)CCC(C)C3)c1` (stereo not given) was tested, and the percent activity (GTP binding) was inconclusive: 128%.
`COc1ccc(NS(=O)(=O)c2ccc(N/N=C/c3ccc(N4CCOCC4)cc3)c([N+](=O)[O-])c2)cc1` was tested, and the percent activity (GTP binding) was inconclusive: 95%.
`O=C(O)C1C(C(=O)Nc2ccc(Cl)cc2)C2C=CC1C21CC1` (stereo not given) was tested, and the percent activity (GTP binding) was inconclusive: 171%.
With `O=C(Cn1nnc(-c2ccccc2)n1)N/N=C/c1ccco1` the percent activity (GTP binding) was inactive: 96%.
`COc1ccc(C(C(=O)NC2CCCC2)N(C(=O)c2snc(-c3ccc(F)cc3)c2N)c2ccc(F)cc2)cc1` (stereo not given) was tested, and the percent activity (GTP binding) was inconclusive: 104%.
In the case of `Cc1nc2ncccn2c1-c1csc(Nc2ccc(O)cc2)n1`, the percent activity (GTP binding) is reported as inconclusive: 35%.
In the case of `O=C(NNc1ccc([N+](=O)[O-])cc1)C1CC2CCCC(C1)C2=O` (stereo not given), the percent activity (GTP binding) is reported as inconclusive: 95%.
For `CCC(C(=O)N1CCc2cc(OC)c(OC)cc2C1)c1ccccc1` (stereo not given), the percent activity (GTP binding) was inconclusive: 104%.
In the case of `CCN(CC)CC1(O)CCN(C(=O)c2ccc(Cl)c(Cl)c2)CC1`, the percent activity (GTP binding) is reported as inconclusive: 102%.
For `COc1ccc(NC(=O)CC2CC3CCC2C3)cn1` (stereo not given), the percent activity (GTP binding) was inconclusive: 92%.
`COc1ccc(Cn2c(N)c(C#N)c3nc4ccccc4nc32)cc1` was tested, and the percent activity (GTP binding) was inactive: 99%.
For `CCn1c(=O)n(CC(=O)Nc2ccc(F)cc2)c(=O)c2ccccc21`, the percent activity (GTP binding) was inactive: 104%.
In the case of `COc1cc(C)ccc1S(=O)(=O)n1nc(C)cc1C`, the percent activity (GTP binding) is reported as inactive: 94%.
For `O=C(Nc1ccccc1Cl)c1ccccc1Cc1ccccc1`, the percent activity (GTP binding) was inactive: 105%.
With `CC(=O)Nc1ccc(NC(=O)CCn2nnc3ccccc32)cc1` the percent activity (GTP binding) was inactive: 86%.
For `Cc1c(CN2CCc3c([nH]c4ccccc34)C2CC(C)C)cnn1C` (stereo not given), the percent activity (GTP binding) was inactive: 98%.
In the case of `COC(=O)c1ccc(-n2cnc3ccccc32)nc1`, the percent activity (GTP binding) is reported as inactive: 95%.
In the case of `O=C1CN=C(Nc2ccccc2Cl)N1Cc1ccc2c(c1)OCO2`, the percent activity (GTP binding) is reported as inconclusive: 104%.
For `CC#CCC(CC#CC)c1nc2ccccc2c(=O)n1N`, the percent activity (GTP binding) was inconclusive: 105%.
In the case of `Cc1ccc(C)c(NC(=O)C2CCCN2C(=O)NC2CCCCC2)c1` (stereo not given), the percent activity (GTP binding) is reported as inactive: 100%.
`O=C(O)CC1=C(Nc2ccccc2)C(=O)N(c2ccccc2)C1c1ccc(Br)cc1` (stereo not given) was tested, and the percent activity (GTP binding) was inactive: 95%.
For `CC(C)c1nc2oc3c(=O)[nH]cnc3c2c2c1CCC2`, the percent activity (GTP binding) was active: 70%.
With `Cc1cc(C)cc(NC(=O)COC(=O)CN=C2NS(=O)(=O)c3ccccc32)c1` the percent activity (GTP binding) was inactive: 96%.
For `N#C/C(=C\c1ccc(N2CCCCC2)o1)C(=O)Nc1cccc(Br)c1`, the percent activity (GTP binding) was inconclusive: 104%.
`Fc1ccccc1-c1csc(=Nc2cccnc2)n1CCCn1ccnc1` was tested, and the percent activity (GTP binding) was inactive: 104%.
With `CC1=C(C(N)=O)C(c2cccnc2)n2nc(SCc3ccccc3Cl)nc2N1` (stereo not given) the percent activity (GTP binding) was inconclusive: 102%.
For `CCOC(=O)N1CCN(c2c(N3CCc4ccccc43)c(=O)c2=O)CC1`, the percent activity (GTP binding) was inconclusive: 106%.
For `COc1ccc(CC(=O)NCCC(C)C)cc1S(=O)(=O)N1CCOCC1`, the percent activity (GTP binding) was inactive: 97%.
`CC(CC(=O)NC1CCSC1=O)c1ccccc1` (stereo not given) was tested, and the percent activity (GTP binding) was inconclusive: 107%.
With `COc1ccc(/C=C/c2c([N+](=O)[O-])c(=O)n(C)c(=O)n2C)c(OC)c1` the percent activity (GTP binding) was inconclusive: 93%.
In the case of `COc1cc(NC(=O)c2ccc3c(c2)OCCO3)ccc1NC(=O)c1ccco1`, the percent activity (GTP binding) is reported as inconclusive: 95%.
With `O=c1c2ccccc2nc2c3ccccc3c(Cl)nn12` the percent activity (GTP binding) was inactive: 80%.
With `NS(=O)(=O)c1ccc(N2N=C(c3ccccc3)CC2c2ccccc2)cc1` (stereo not given) the percent activity (GTP binding) was active: 71%.
With `O=c1c2ccccc2nc(-c2cccs2)n1-c1cccc2ccccc12` the percent activity (GTP binding) was inactive: 96%.
With `CC(=O)c1ccc(NC(=S)NNC(=O)c2ccncc2)cc1` the percent activity (GTP binding) was inactive: 101%.
`COc1ccc2[nH]c(C(=O)O)c(CCNC(C)=O)c2c1` was tested, and the percent activity (GTP binding) was inconclusive: 97%.
For `O=C(CCCc1nc2ccccc2s1)NNC(=O)CCN1CCN(Cc2ccccc2)CC1`, the percent activity (GTP binding) was inactive: 100%.
For `O=C(CSc1nnc(-c2ccncc2)n1-c1ccc(Cl)cc1)Nc1ccc(C(=O)O)cc1`, the percent activity (GTP binding) was inconclusive: 90%.
For `CCOc1ccc(C2N(c3ccc(F)cc3)C(=O)C3CCCN32)cc1OC` (stereo not given), the percent activity (GTP binding) was inconclusive: 103%.
With `COc1ccc(NC(=S)NC(NC(=O)c2ccc(Cl)cc2Cl)C(Cl)(Cl)Cl)c([N+](=O)[O-])c1` (stereo not given) the percent activity (GTP binding) was inconclusive: 96%.
With `CCNC(=O)NC(=O)C(C)OC(=O)c1cccn1C` (stereo not given) the percent activity (GTP binding) was inactive: 98%.
In the case of `Cc1cc(Cl)ccc1OCC(=O)NNC(=O)C1CCCO1` (stereo not given), the percent activity (GTP binding) is reported as inactive: 97%.
For `Fc1ccc(CNCc2ccccc2Cl)cc1`, the percent activity (GTP binding) was inconclusive: 92%.
`O=C(NC12CC3CC(CC(C3)C1)C2)N1CCN(C(=O)c2ccco2)CC1` was tested, and the percent activity (GTP binding) was inconclusive: 94%.
For `Cc1ccc(OCC(=O)Nc2ccc(N3CCN(C(=O)c4ccco4)CC3)cc2)cc1`, the percent activity (GTP binding) was inconclusive: 93%.
In the case of `COc1ccc(S(=O)(=O)Nc2ccc(N3CCOCC3)nc2)cc1`, the percent activity (GTP binding) is reported as inactive: 94%.
`Cc1c(NC(=O)c2ccc3c(c2)C(=O)N(Cc2ccco2)C3=O)cccc1C(=O)O` was tested, and the percent activity (GTP binding) was inconclusive: 89%.
For `O=C(COC(=O)CCc1c[nH]c2ccccc12)Nc1ccc([N+](=O)[O-])cc1`, the percent activity (GTP binding) was inconclusive: 96%.
For `NC(=S)Nc1cccc2cc3ccccc3cc12`, the percent activity (GTP binding) was inconclusive: 78%.
With `CCNC(=S)NNC(=O)c1cccn(Cc2ccc(Cl)cc2)c1=O` the percent activity (GTP binding) was inconclusive: 111%.
`CCN(CC)CCn1c(=S)[nH]c2ccc(Cl)cc2c1=O` was tested, and the percent activity (GTP binding) was inconclusive: 101%.
In the case of `COc1ccccc1CNC(=O)COC(=O)c1ccc(S(=O)(=O)N2CCCC2)cc1`, the percent activity (GTP binding) is reported as inconclusive: 107%.
For `O=C(Nc1ccc2c(c1)C(=O)NC2=O)c1ccc(S(=O)(=O)N2CCCC2)cc1`, the percent activity (GTP binding) was inconclusive: 88%.
For `Cc1onc(-c2c(Cl)cccc2Cl)c1C(N)=S`, the percent activity (GTP binding) was inactive: 91%.
For `CCO[C@@H]1OC(C(=O)NCc2nc3ccccc3[nH]2)=C[C@H](c2ccc(C(F)(F)F)cc2)[C@H]1CCCO`, the percent activity (GTP binding) was inactive: 97%.
In the case of `C=CCOc1ccc2nnc(C)n2n1`, the percent activity (GTP binding) is reported as inactive: 102%.
With `O=C(NCc1ccncc1)C(=O)NCc1ccncc1` the percent activity (GTP binding) was inconclusive: 98%.
For `Cc1cccc(NS(=O)(=O)c2cc(C(=O)N3CCc4ccccc4C3)ccc2Cl)c1C`, the percent activity (GTP binding) was inactive: 99%.
In the case of `O=C(Nc1ccccc1C(=O)NC(Cc1ccccc1)C(=O)NC1CCCCCC1)c1ccccc1` (stereo not given), the percent activity (GTP binding) is reported as inconclusive: 102%.
In the case of `Cc1nc(N)sc1C(=O)N/N=C/c1ccccc1[N+](=O)[O-]`, the percent activity (GTP binding) is reported as inconclusive: 92%.
In the case of `CCN=C1SC(CC(=O)NCCc2ccc(OC)cc2)C(=O)N1CC` (stereo not given), the percent activity (GTP binding) is reported as inconclusive: 105%.
In the case of `Cc1ccc(NC(=O)c2cccc3c2C(=O)N(C2CCCCC2)C3)cc1`, the percent activity (GTP binding) is reported as inconclusive: 86%.
`Cc1ccc(NC(=O)c2ccc(NCc3ccco3)c([N+](=O)[O-])c2)cc1Cl` was tested, and the percent activity (GTP binding) was inactive: 103%.
With `CNC(=O)COC(=O)c1cc(NC(=O)c2ccco2)c(OC)c(OC)c1` the percent activity (GTP binding) was active: 78%.
With `CN(C)c1ccc(N2CC(C)(C)C2=O)cc1` the percent activity (GTP binding) was inactive: 93%.
With `C/C(=N\n1cnnc1)c1ccc(C#N)cc1` the percent activity (GTP binding) was inconclusive: 93%.
`CC(C)(C)C(=O)CNS(=O)(=O)c1ccc(S(=O)(=O)NC2CCCC2)cc1` was tested, and the percent activity (GTP binding) was inactive: 103%.
With `c1ccc(-c2nc(NCCCn3ccnc3)c3oc4ccccc4c3n2)cc1` the percent activity (GTP binding) was inconclusive: 94%.
For `CCOC(=O)C1(CCc2ccccc2)CCN(C(=O)[C@@H]2C[C@@H](C)NC(=S)N2)CC1`, the percent activity (GTP binding) was inactive: 97%.
In the case of `O=C(CSc1nnc(-c2ccco2)o1)c1ccc[nH]1`, the percent activity (GTP binding) is reported as inconclusive: 95%.
For `O=C(NCc1cccnc1)C(=O)Nc1ccc2c(c1)OCO2`, the percent activity (GTP binding) was inactive: 95%.
`CCc1cc(C(c2ccccc2OC)N2CCOCC2)c(NC(=O)c2ccccc2)s1` (stereo not given) was tested, and the percent activity (GTP binding) was inconclusive: 106%.
`CN(C)c1ccc(/C=N\NC(=O)CC#N)cc1` was tested, and the percent activity (GTP binding) was inconclusive: 95%.
For `COc1ccc2nc(/C(C#N)=C\c3ccc(C(=O)O)cc3)[nH]c2c1`, the percent activity (GTP binding) was active: 78%.
`O=c1c2ccccc2nc2c3ccccc3cnn12` was tested, and the percent activity (GTP binding) was active: 78%.
For `COC(=O)c1cc(OC)c(OC)cc1NC(=O)c1ccccc1`, the percent activity (GTP binding) was inconclusive: 105%.
In the case of `Cc1ccc(C(=O)c2ccccc2C(=O)O)cc1C`, the percent activity (GTP binding) is reported as active: 135% [activator].
For `NC(=O)c1cc2ccccc2o/c1=N/NC(=O)c1cccs1`, the percent activity (GTP binding) was inconclusive: 74%.
With `Cc1ccc(SCCC(=O)N2CCC(C(N)=O)CC2)cc1` the percent activity (GTP binding) was inconclusive: 97%.
